Data taken from PubChem BioAssay AID1508642 (National Center for Advancing Translational Sciences (NCATS), 2021).
Out of some 43,000 compounds screened, about 200 (0.47%) were called active. Inconclusive results (about 12%) are left out. Calls come from the whole dose curve; as a rule, active = well fitted cell-killing curve with a large enough effect; inconclusive = small, poorly fitted or top-dose-only effect, or effect the other way; inactive = flat fitted curve, though single readings scatter. The list shows a part of the results.

Assay: Cell viability qHTS assay in S16 Pmp22-F2sN cells; note: nearly all actives have a fitted effect of over 65% in size
Settings: S16 Pmp22-F2sN Schwann cells viability, CellTiter-Glo, 24 h; series mostly up to 57.5 µM; activity change, negative = cytotoxicity: at the top concentration
How it was run: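 Viability was measured by CellTiter-Glo luminescence (15 min, room temperature). This followed 24 h at 37 °C of compound exposure (23 nL pin transfer) in S16 Pmp22-F2sN Schwann cells, 500-1,000 per well.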
% is set by controls: 0 for no effect and ±100 for the full control effect.

| SMILES | activity change, negative = cytotoxicity |
| --- | --- |
| Cc1ccc2oc(=O)c3cc(C(=O)Nc4ccc(F)cc4F)sc3c2c1 | inactive: 20.4% |
| COc1ccc(CCNC(=O)c2ccc(Cn3c(=O)c4ccccc4n(Cc4cc(C)ccc4C)c3=O)cc2)cc1OC | inactive: 3.07% |
| Cc1cc(C)c2nc(N3CCCC(C(=O)NCc4cccc(Br)c4)C3)sc2c1 (stereo not given) | inactive: 2.27% |
| Fc1ccc(Nc2nc3ccccc3c3nncn23)c(Cl)c1 | inactive: 9.46% |
| CCc1ccc(NC(=O)C2CCC(CNS(=O)(=O)c3ccc4c(c3)CC(C)N4C(C)=O)CC2)cc1 (stereo not given) | inactive: -3.95% |
| COc1ccccc1OCCn1c(NC(=O)c2ccc(Cl)cc2)nc2ccccc21 | inactive: 1.34% |
| COc1ccc(-c2nc3ccccc3s2)cc1NC(=O)COc1ccccc1C | inactive: 11.5% |
| COc1ccc(C)c2sc(N(Cc3cccnc3)C(C)=O)nc12 | inactive: 3.31% |
| Cc1ccc(Cl)cc1NC(=O)CN1C(=O)c2cccc3cccc1c23 | inactive: 9.45% |
| COc1ccc(C2CC(=O)c3cc(-c4nc(-c5cccc([N+](=O)[O-])c5)cs4)c(=O)n(-c4ccc(C)c(C)c4)c3C2)cc1 (stereo not given) | inactive: 13.2% |
| O=C(Nc1c(C(=O)N2CCN(c3ccc(F)cc3)CC2)oc2ccccc12)c1c(F)cccc1F | inactive: -4.42% |
| CCC1CCCCN1CCCNC(=O)CN1C(=O)c2cccnc2Oc2ccc(Cl)cc21 (stereo not given) | inactive: 8.9% |
| O=C(Cn1cc(SCc2ccc(C(F)(F)F)cc2)c2ccccc21)N1CCCCCC1 | inactive: -21.7% |
| Cc1ccc(NC(=O)CSc2nc(C)c(Cc3ccccc3)c(=O)[nH]2)cc1C | inactive: 3.49% |
| CCOC(=O)C1(C)C=C(Nc2ccc(Br)cc2)C(=O)N1c1ccccc1 (stereo not given) | inactive: 11.3% |
| Cc1c(C(=O)N(Cc2ccc(N(C)C)cc2)C2CCS(=O)(=O)C2)oc2ccccc12 (stereo not given) | inactive: 2.94% |
| COc1ccc(OC)c(C2NC(=O)NC(C)=C2C(=O)Nc2cc(C)cc(C)c2)c1 (stereo not given) | inactive: 3.21% |
| O=C(c1ccc2c(c1)N(Cc1ccccc1)C(=O)c1ccccc1S2(=O)=O)N1CCN(c2ccccc2)CC1 | inactive: -2.59% |
| Cc1nn(C(C)C(=O)NC2CCCCC2)c(=O)c2c1sc1ccccc12 (stereo not given) | inactive: 6.78% |
| COc1ccc(CC(=O)NC2CC(=O)N(c3cccc(F)c3)C2)cc1 (stereo not given) | inactive: 4.14% |
| Cc1ccc(OCC(=O)Nc2ccc(OCc3cc(=O)n4cccc(C)c4n3)cc2)cc1C | inactive: 9.86% |
| COc1ccc(CCNC(=O)Cc2c(C)c3c(cc(C)c4c(C)coc43)oc2=O)cc1OC | inactive: 6.89% |
| CCN(C(=O)C(=O)Nc1ccc2nc3n(c(=O)c2c1)CCCCC3)c1ccc(F)cc1 | inactive: 5.38% |
| COc1ccc2c(CNCc3ccc(C)o3)c(C(=O)O)n(Cc3ccccc3C)c2c1 | inactive: 0.301% |

| SMILES | activity change, negative = cytotoxicity |
| --- | --- |
| COc1ccc(CCNC(=O)c2ccc3c(c2)CCN3S(C)(=O)=O)cc1 | inactive: -3.93% |
| CCC(=O)N1c2ccccc2CC1C(=O)NCc1cccc(C)c1 (stereo not given) | inactive: -0.292% |
| CCN(CC)CCCNC(=O)Cn1nc(C)n2c(cc3sccc32)c1=O | inactive: 5.87% |
| Cc1ccccc1-c1nc(CS(=O)CC(=O)N2CCN(c3cc(Cl)ccc3C)CC2)c(C)o1 (stereo not given) | inactive: -21.7% |
| CCc1ccccc1NC(=O)Cn1ccn(-c2cc(C)cc(C)c2)c(=O)c1=O | inactive: 7.03% |
| COc1ccc(NC(=O)c2ccc3oc(=O)c(S(=O)(=O)c4ccc(C)cc4)cc3c2)cc1OC | inactive: 5.42% |
| Cc1nn(S(=O)(=O)c2ccccc2)c(C)c1S(=O)(=O)N1CCC(C)CC1 | inactive: 0.167% |
| Cc1ccc(C(=O)c2oc3ccccc3c2NC(=O)Cc2coc3cc(C)ccc23)cc1 | inactive: 2.84% |
| COc1ccc(CCNC(=O)Cn2c(=O)n(-c3ccc(C)c(C)c3)c(=O)c3c(C)c(C)sc32)cc1OC | inactive: -7.17% |
| COc1ccc(Cn2nnc3c(=O)[nH]c(C4CCCN(C(=O)c5ccc(C)cc5)C4)nc32)cc1 (stereo not given) | inactive: -0.0837% |
| CCCCc1ccc(NC(=O)Cn2nnc3sc4c(c3c2=O)CCC(C)C4)cc1 (stereo not given) | inactive: 3.41% |
| CCOC(=O)c1ccccc1NS(=O)(=O)c1ccc(N2CCCCS2(=O)=O)cc1 | inactive: -12.1% |
| CCc1nn(CC(=O)NC(C)CC)c(=O)c2cc3c(OC)cccc3n12 (stereo not given) | inactive: 0.983% |
| Cc1cccc(-n2c(SCc3nc(-c4ccccc4C)no3)nnc2-c2ccccc2)c1 | inactive: 6.38% |
| CN1CCN(c2oc(/C=C/c3ccc(F)cc3)nc2C#N)CC1 | inactive: 2.36% |
| Cc1cccn2c(=O)c(C(=O)NCc3ccccc3Cl)c(O)nc12 | inactive: -1.88% |
| CCOc1ccc(-n2nc(CO)c(C(=O)NCc3cccnc3)n2)cc1 | inactive: -15.4% |
| COc1ccc(-c2noc(-c3ccc(N4CCN(c5ccc(OC)cc5)CC4)c([N+](=O)[O-])c3)n2)cc1 | inactive: 6.06% |
| COc1ccc(C2C(C(N)=O)=C(C)Nc3nc(CCCO)nn32)cc1 (stereo not given) | inactive: 2.1% |
| Cc1ccc(CCNC(=O)c2cc(Nc3ccc(C)c(C)c3)nc3ccccc23)cc1 | inactive: 5.01% |
| O=C(c1ccccc1Cl)N(Cc1ccco1)Cc1ccco1 | inactive: -0.297% |
| Cc1ccccc1Nc1c(-c2cccc(N(C)C)c2)nc2ccc(Br)cn12 | inactive: 8.73% |
| Cc1cc(F)ccc1-n1nnc(C(N)=O)c1C | inactive: 13.3% |
| CN(Cc1ccccc1)c1ccc(-c2nc(-c3ccco3)no2)cc1[N+](=O)[O-] | inactive: 13.5% |

| SMILES | activity change, negative = cytotoxicity |
| --- | --- |
| CC(=O)c1cccc(NC(=O)c2c(-c3ccccc3)c(-c3ccccc3)nn(C)c2=O)c1 | inactive: -18.7% |
| COC(=O)c1c(NC(=O)Cc2coc3ccc(C)cc23)sc2c1CCC2 | inactive: -1.89% |
| Cc1cccc(NC(=O)c2sc3nc4c(cc3c2N)CCCCCC4)c1C | inactive: 16.7% |
| COc1ccc(-n2nc(C(=O)Nc3ccc(Cl)cn3)c3c4ccccc4n(C)c3c2=O)cc1Cl | inactive: 16.8% |
| Cc1[nH]c2ccccc2c1C(c1ccccc1)c1cccs1 (stereo not given) | inactive: 1.83% |
| Cc1ccccc1NC(=O)Cn1c(=O)n(CCc2ccccc2)c(=O)c2sc3ccccc3c21 | inactive: 11.5% |
| Cc1cc(C(F)(F)F)nn1-c1nc(-c2ccccc2)cc(C(F)(F)F)n1 | inactive: 8.37% |
| CCOC(=O)c1ccc(NC(=O)CC2C(=O)N(c3ccc(C)cc3)C(=O)N2C2CCCCC2)cc1 (stereo not given) | inactive: -0.0231% |
| O=C(CSc1ccccc1)NCc1ccc2c(c1)CCN2C(=O)c1ccc(Cl)cc1 | inactive: -4.09% |
| CC(C)(C)OC(=O)N1CCC(c2c(C(=O)NC3CCCCC3)cnn2-c2cccc(F)c2)CC1 | inactive: -7.73% |
| Cc1cc(Sc2ccc(Cl)cc2)nc2ccccc12 | inactive: 6.12% |
| Cc1cccc(C(=O)Nc2cccc(C(=O)OCc3cc(=O)n4nc(C(C)C)sc4n3)c2)c1 | inactive: -7.1% |
| Cn1nnnc1SCCNCc1ccc(OCc2ccccc2Cl)cc1 | inactive: -22.4% |
| CC(NC(=O)c1ccc(NC(=O)c2nsc3ccccc23)cc1)c1ccccc1 (stereo not given) | inactive: -18.2% |
| Cc1ccc(N(C)S(=O)(=O)c2ccc3[nH]c4c(c3c2)CCCC4)cc1 | inactive: 13.7% |
| N#Cc1cccc(NC(=O)Cn2nc(Cc3ccncc3)c3ccccc3c2=O)c1 | inactive: -3.37% |
| CCN1C(=O)C(Cc2nc3ccccc3c(=O)n2-c2ccc(OC)cc2)c2cc(C)ccc21 (stereo not given) | inactive: -10% |
| Cc1ccc(C)c(Nc2nc(-c3ccccc3)c3cc(Br)ccc3n2)c1 | inactive: 21.9% |
| COc1ccc(CCNC(=O)CCCCn2c(=O)c3ccccc3n(CC(=O)Nc3ccc(C)cc3C)c2=O)cc1OC | inactive: -7.84% |
| O=C(COc1ccccc1)NCCc1csc(-c2cccc(F)c2)n1 | inactive: 10.6% |
| CCN(CC)CCNC(=O)C(=O)NCC(c1cccnc1)N1CCN(c2ccccc2)CC1 (stereo not given) | inactive: -8.82% |
| O=C(Nc1cccc(Cl)c1)c1cc(-c2ccc3c(c2)OCCO3)on1 | inactive: -2.48% |
| Cc1cccc(C(=O)Nc2cccc(OCc3cc(=O)n4cccc(C)c4n3)c2)c1 | inactive: 1.25% |
| Cc1cccc(NC(=O)CSc2nnc3[nH]c(=O)cc(C)n23)c1C | inactive: -0.199% |

| SMILES | activity change, negative = cytotoxicity |
| --- | --- |
| CCOC(=O)C1=C(CS(=O)(=O)c2ccc(C(C)(C)C)cc2)NC(=O)NC1c1cccc(OC)c1 (stereo not given) | inactive: 1.33% |
| O=C(CSCc1ccc(F)cc1)N1CCc2c([nH]c3ccccc23)C1c1ccc(F)cc1 (stereo not given) | inactive: -7.68% |
| O=C(CCn1c(=O)c2cccn2c2cccnc21)Nc1ccccc1Br | inactive: 18.6% |
| COc1ccc(N2CCN(C(=O)c3cnc(SC)nc3C)CC2)cc1 | inactive: 15.7% |
| COc1ccc(-c2cc3c(=O)n(CC(=O)Nc4ccc(Br)c(C)c4)ccn3n2)cc1OC | inactive: -3.98% |
| CCOc1ccccc1N(C)C(=O)c1cc(S(=O)(=O)NCCc2ccc(Cl)cc2)ccc1F | inactive: -29.4% |
| CCOc1ccc(NC(=O)c2ccc3c(c2)nnn3C2CCCC2)cc1 | inactive: -30.2% |
| CC(C)(C)c1ccc(C(=O)N2CCC(c3noc(-c4ccc(S(=O)(=O)N5CCCC5)cc4)n3)CC2)cc1 | inactive: -23.4% |
| Cc1ccccc1CNC(=O)CCc1cn(Cc2ccccc2C)c2ccccc12 | inactive: 0.654% |
| Cc1nn(S(=O)(=O)c2ccc(F)cc2)c(C)c1S(=O)(=O)N1CCCCC1 | inactive: 3.82% |
| Cc1c(C(=O)Nc2cccc(C(F)(F)F)c2)oc2ccc(S(=O)(=O)N3CCC4(CC3)OCCO4)cc12 | inactive: -12.3% |
| COc1ccc(NC(=O)CSc2c3c(nc4ccccc24)CCC3)cc1Cl | inactive: 3.9% |
| Cc1ccc2c(c1)N(C(=O)CCC(=O)Nc1ccc(F)cc1F)CC(C)O2 (stereo not given) | inactive: 3.21% |
| CCOC(=O)c1c(C)[nH]c(C)c1S(=O)(=O)N1CCC(C(=O)NCc2cccc(C)c2)CC1 | inactive: -25.4% |
| O=C(Nc1ccc(-c2nc3ccccc3s2)c(O)c1)c1ccc(Br)cc1 | inactive: 0.458% |
| CCc1ccccc1NC(=O)CSc1nc(C)c(C(=O)Nc2ccccc2)c(-c2ccc(Cl)cc2)c1C#N | inactive: -24.4% |
| O=C(NCCc1ccc(Cl)cc1)C(=O)NCC(c1ccc2c(c1)OCO2)N1CCOCC1 (stereo not given) | inactive: -15.2% |
| O=C(Nc1nc2ccc(F)cc2s1)c1nc(SCc2ccccc2F)ncc1Cl | inactive: 0.316% |
| O=C(CN1C(=O)COc2ccc(S(=O)(=O)N3CCOCC3)cc21)Nc1ccc(F)c(Cl)c1 | inactive: 6.52% |
| COc1cc(OC)c(N(C)C(=O)c2cn(C)c(=O)c3cc(OC)c(OC)cc23)cc1Cl | inactive: -2.16% |
| O=C(Nc1nc2c(F)cc(F)cc2s1)c1ccc2c(c1)OCCO2 | inactive: -3.33% |
| Cc1cc(S(=O)(=O)Nc2cc3c(cc2Cl)n(C)c(=O)c(=O)n3C)ccc1F | inactive: -9.85% |
| Cn1c(=O)c2cc(C(=O)N3CCN(c4cccc(C(F)(F)F)c4)CC3)sc2c2ccccc21 | inactive: 3.98% |
